# Whole data set: some 81,000 sequences, median “one-hybrid fitness for binding NBS DNA” near -0.1, cut for the highest 2% near 0.36. Some of the results follow.
# B1: Caulobacter ParB omega fusion; a variant is named by its letters at X, in order, B8GW30 (parent)
# chain: MESVVVGEPGMSEGRRGLGRGLSALLGEVDAAPAQAPGEQLGGSREAPIEILQRNPDQPRRTFREEDLEDLSNSIREKGVLQPILVRPSPDTAGEYQIVAGERAWRAAQRAGLKTVPIMVRELDDLAVLEIGIIENVQRADLNVLEEALSYKVLMEKFERTQENIAQTIGKSXSHVANXMRLLXLPDEVQSYLVSGELTAXHARAIAAAADPVALAKQIIEGGLSVRETEALARKAPNLSAGKSKGGRPPRVKDTDTQALESDLSSVLGLDVSIDHRGSTGTLTITYATLEQLDDLCNRLTRGI
# Variants of: B1
# Test: one-hybrid fitness for binding NBS DNA (the Noc-binding site; scaled: cognate 1, non-cognate 0); higher = stronger binding
# Conditions: with NBS DNA site
# In short: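 Values were rescaled so that cognate is 1 and non-cognate is 0. Each is a fitness, the log change in a variant's read ratio to wild type from Illumina reads of plasmids before and after selection, with three replicate libraries pooled and variants under 10 reads dropped. Selection of the Caulobacter ParB libraries, four specificity codons randomised, used E. coli USO with a HIS3 reporter, site 19 bp from the promoter, on M9-minus-histidine with 0.1 mM IPTG and 5 mM 3-AT for 48 hours at 37°C.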
row,Variant,one-hybrid fitness for binding NBS DNA
1,SDLY,≤ 0.2
2,NRRH,≤ 0.2
3,SMTR,≤ 0.2
4,TPTN,≤ 0.2
5,RGAF,≤ 0.2
6,FVMC,≤ 0.2
7,LRWE,≤ 0.2
8,SEYC,≤ 0.2
9,LISE,≤ 0.2
10,MDWP,≤ 0.2
11,ARFL,≤ 0.2
12,VVAR,≤ 0.2
13,LHDG,≤ 0.2
14,RSTI,≤ 0.2
15,DTSS,≤ 0.2
16,FTNR,≤ 0.2
17,RSGK,≤ 0.2
18,RPAK,≤ 0.2
19,ASKI,≤ 0.2
20,WHLR,≤ 0.2
21,VLAW,≤ 0.2

row,Variant,one-hybrid fitness for binding NBS DNA
1,GGRS,≤ 0.2
2,NPEV,≤ 0.2
3,VFLE,≤ 0.2
4,DRMA,≤ 0.2
5,AALF,≤ 0.2
6,RCIE,≤ 0.2
7,SKKF,≤ 0.2
8,YLMS,≤ 0.2
9,MAFT,≤ 0.2
10,QAND,≤ 0.2
11,PNKT,≤ 0.2
12,PVSM,≤ 0.2
13,CLAM,≤ 0.2
14,VNPG,≤ 0.2
15,GIRT,≤ 0.2
16,ITPL,≤ 0.2
17,HEQG,≤ 0.2
18,MWAC,≤ 0.2
19,ERPT,≤ 0.2
20,KQAG,≤ 0.2
21,KGDR,≤ 0.2

row,Variant,one-hybrid fitness for binding NBS DNA
1,RRPG,≤ 0.2
2,QIFG,≤ 0.2
3,YIFR,≤ 0.2
4,YMPS,≤ 0.2
5,SGYA,≤ 0.2
6,LKFM,≤ 0.2
7,RIGW,≤ 0.2
8,ELLG,≤ 0.2
9,ASVF,≤ 0.2
10,DYLW,≤ 0.2
11,PVVG,≤ 0.2
12,QLPA,≤ 0.2
13,RLHC,≤ 0.2
14,PWDR,≤ 0.2
15,RTNV,≤ 0.2
16,NCEY,≤ 0.2
17,MAKY,≤ 0.2
18,RTRI,≤ 0.2
19,EMKV,≤ 0.2
20,HLCV,≤ 0.2
21,TACA,≤ 0.2

row,Variant,one-hybrid fitness for binding NBS DNA
1,QSWC,≤ 0.2
2,APGE,≤ 0.2
3,MSDN,≤ 0.2
4,KQKW,≤ 0.2
5,TWYG,≤ 0.2
6,NWCT,≤ 0.2
7,RQGC,≤ 0.2
8,MVAG,≤ 0.2
9,QMSV,≤ 0.2
10,QCIA,0.25
11,TKRT,≤ 0.2
12,DHMR,≤ 0.2
13,HRKG,≤ 0.2
14,GMMC,≤ 0.2
15,TCPP,≤ 0.2
16,QLEA,≤ 0.2
17,SANN,≤ 0.2
18,CDLT,≤ 0.2
19,KKTN,≤ 0.2
20,HADR,≤ 0.2
21,DCRR,0.416
